This is an account of results in paper PMC4336329 (PLoS ONE, 2015).

The campaign covered roughly 310,000 compounds. About 14,000 (4.5%) showed an effect of 50% or more. Effects have a minus sign here. The list shows a part of the results. Where a SMILES comes first, the peptide text is derived from it. [ ]: non-standard residue; d: D form. ξ: configuration not given here. ξM = CSCCC(N)C(=O)O
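Note: peak tail current of the secondary pulse compared with the same well before compound.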

The experiment deals with human ether-à-go-go-related gene (hERG) potassium channel (human, UniProt Q12809). The experiment in a line: primary screen, population patch clamp on CHO cells stably expressing hERG.
Sequence of human ether-à-go-go-related gene (hERG) potassium channel (Q12809 whole entry, looked up): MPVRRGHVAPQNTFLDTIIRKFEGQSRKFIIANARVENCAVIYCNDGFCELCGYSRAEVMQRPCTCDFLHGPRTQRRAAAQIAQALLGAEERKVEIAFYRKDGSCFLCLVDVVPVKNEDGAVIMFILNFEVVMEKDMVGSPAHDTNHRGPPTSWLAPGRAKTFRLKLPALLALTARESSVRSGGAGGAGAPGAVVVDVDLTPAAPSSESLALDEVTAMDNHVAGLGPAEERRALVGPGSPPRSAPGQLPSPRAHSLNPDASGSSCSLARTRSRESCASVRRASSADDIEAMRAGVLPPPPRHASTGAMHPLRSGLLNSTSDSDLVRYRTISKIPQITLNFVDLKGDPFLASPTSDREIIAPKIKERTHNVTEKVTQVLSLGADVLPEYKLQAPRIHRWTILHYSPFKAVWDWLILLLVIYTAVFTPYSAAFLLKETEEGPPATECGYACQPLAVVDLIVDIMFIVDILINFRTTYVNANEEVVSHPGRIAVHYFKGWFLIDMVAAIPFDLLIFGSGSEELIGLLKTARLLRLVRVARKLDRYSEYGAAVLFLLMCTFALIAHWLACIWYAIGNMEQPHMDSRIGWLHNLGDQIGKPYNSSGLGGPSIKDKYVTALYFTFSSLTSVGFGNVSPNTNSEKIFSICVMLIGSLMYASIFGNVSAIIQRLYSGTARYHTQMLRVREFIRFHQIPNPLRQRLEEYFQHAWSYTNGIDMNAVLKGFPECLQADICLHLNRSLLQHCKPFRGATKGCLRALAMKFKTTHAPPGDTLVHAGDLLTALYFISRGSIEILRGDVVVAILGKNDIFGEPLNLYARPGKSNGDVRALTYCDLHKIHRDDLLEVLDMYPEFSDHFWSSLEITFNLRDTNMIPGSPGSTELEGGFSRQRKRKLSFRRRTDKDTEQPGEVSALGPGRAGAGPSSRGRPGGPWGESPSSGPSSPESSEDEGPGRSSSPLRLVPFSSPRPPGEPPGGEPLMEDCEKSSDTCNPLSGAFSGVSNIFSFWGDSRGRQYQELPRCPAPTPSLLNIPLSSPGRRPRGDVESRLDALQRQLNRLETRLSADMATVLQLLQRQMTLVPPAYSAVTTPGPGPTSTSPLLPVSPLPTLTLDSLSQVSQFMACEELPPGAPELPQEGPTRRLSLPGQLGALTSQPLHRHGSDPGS
Take `O=S(=O)(c1ccc2c(c1)OCCO2)N1CCC(n2nnc3cc(C(F)(F)F)ccc32)CC1`: the “hERG current change (%, negative = inhibition) at 10uM” value is -16.4%.
For `Cc1c(CCC(=O)NCCCC(=O)O)c(=O)oc2cc3oc4c(c3cc12)CCCC4`, the “hERG current change (%, negative = inhibition) at 10uM” value is recorded as 16.9%.
Take `CC(C)(C)OC(=O)NCCCC[C@H](NC(=O)c1[nH]cnc1C(=O)Nc1ccccc1)C(=O)OC(C)(C)C`: the “hERG current change (%, negative = inhibition) at 10uM” value is 15.6%.
On to `COc1ccc(CN2CCN(C(C)C)C(CCO)C2)cc1Cn1cccn1` (stereo not shown), for which the “hERG current change (%, negative = inhibition) at 10uM” value is given as 8.43%.
On to `COC(=O)c1ccc(CN2CCCC(C(=O)Nc3ccc(-c4ccn[nH]4)cc3)C2)cc1` (stereo not shown), for which the “hERG current change (%, negative = inhibition) at 10uM” value was determined as 3.46%.
With `CCN1C(=NCCOC)N[C@@H](c2cccc(F)c2)C(C(=O)OC)=C1C` the figure was -14.3%; with `Cc1ccccc1NC(=O)Nc1cc(-c2ccccc2)nn1C`, 2.31%.
As for `Nc1nonc1N1CCCCC1`, the “hERG current change (%, negative = inhibition) at 10uM” value came out at 9.12%.
As to `O=C(O)c1cccc(Nc2ncnc3ccc(Br)cc23)c1`, the “hERG current change (%, negative = inhibition) at 10uM” value was -1.55%.
Regarding `CCn1cc(C(=O)OCC(=O)Nc2ccc(C(C)C)cc2)c(=O)c2ccc(C)nc21`, the “hERG current change (%, negative = inhibition) at 10uM” value is listed as 12.4%.
In the case of `CN(C)CCN(C(=O)c1ccc(N2C(=O)CCC2=O)cc1)c1nc2cc3c(cc2s1)OCO3.Cl`, the “hERG current change (%, negative = inhibition) at 10uM” value is listed as 0.227%.
`Cc1ccc(-c2nnnn2-c2ccc(C)cc2)cc1`: the “hERG current change (%, negative = inhibition) at 10uM” value is recorded as -9.64%.
In the case of `CCOC(=O)CSc1nc(C)c2ccc(C)cc2n1`, the “hERG current change (%, negative = inhibition) at 10uM” value was found to be 3.42%.
With `Cc1nc2cc(NC(=O)NC3CC3)ccc2n1C`, the “hERG current change (%, negative = inhibition) at 10uM” value was found to be 18.9%.
In the case of `CCOc1cc(/C=N/Nc2nc(-c3cccs3)c(NC(C)=O)s2)ccc1O`, the “hERG current change (%, negative = inhibition) at 10uM” value is reported as -9.55%.
Regarding `N#Cc1cc2c(nc1SCc1cccnc1)CCCC2`, the “hERG current change (%, negative = inhibition) at 10uM” value is -7.04%.
Consider `COc1ccccc1OCC(=O)N1CCN(Cc2ccc3c(c2)OCO3)CC1`, for which the “hERG current change (%, negative = inhibition) at 10uM” value is listed as -29.3%.
`Fc1cccc(F)c1/C=N/N1CCOCC1`: the “hERG current change (%, negative = inhibition) at 10uM” value came to 3.33%.
For the molecule `COC(=O)CNC(=O)C(CCSC)NC(C)=O` (stereo not shown) (Ac-[ξM]-Gly-OMe), the “hERG current change (%, negative = inhibition) at 10uM” value is given as 26.5%.
With `Cc1ccccc1N1CC2=C(C1=O)C(c1ccccc1)NC(=O)N2C` (stereo not shown) the figure was -3.43%.
Consider `Cc1cc(N2CCN(C)CC2)n2nc(-c3ccc(Cl)cc3)nc2n1`, for which the “hERG current change (%, negative = inhibition) at 10uM” value is listed as -77.3%.
`Cc1ccc(CN2CCN(/N=C/c3sccc3C)CC2)c(C)c1`: the “hERG current change (%, negative = inhibition) at 10uM” value was -14.1%.
For the molecule `O=C(CNS(=O)(=O)c1ccccc1)Nc1ccccc1Br`, the “hERG current change (%, negative = inhibition) at 10uM” value is listed as 2.86%.
For the molecule `O=C(Cn1cc([N+](=O)[O-])ccc1=O)Nc1ccc2c(c1)OCO2`, the “hERG current change (%, negative = inhibition) at 10uM” value is reported as -4.94%.
Turning to `COC(=O)CNC(c1ccccc1)c1cc(Br)ccc1N` (stereo not shown), the “hERG current change (%, negative = inhibition) at 10uM” value is recorded as -12.4%.
On to `COc1ccc(OC)c(NC(=O)CSc2nnc(CNC(=O)c3ccccc3F)o2)c1`, for which the “hERG current change (%, negative = inhibition) at 10uM” value is reported as -3.87%.
As to `CC(C)(C)C(=O)Nc1sc2c(c1C(=O)Nc1ccccn1)CCCC2`, the “hERG current change (%, negative = inhibition) at 10uM” value was -9.5%.
Consider `COC(=O)c1ccc(NC(=O)C2CCCO2)cc1` (stereo not shown), for which the “hERG current change (%, negative = inhibition) at 10uM” value came to 2.85%.
For `O=c1ccn(Cc2ccccc2)c2ccccc12`, the “hERG current change (%, negative = inhibition) at 10uM” value is given as -0.762%.
Turning to `CCn1c(CNc2ccc(F)cc2)nnc1SCCN1CCCCC1`, the “hERG current change (%, negative = inhibition) at 10uM” value is -12.1%.
With `O=C1CC(N2CCC(O)(c3ccc(Br)cc3)CC2)C(=O)N1c1ccc(Cl)cc1` (stereo not shown) the figure was -30.5%; with `Cc1ccc(CN2CCN(/N=C/C(Br)=C\c3ccccc3)CC2)cc1`, -3.15%; with `C/C(N)=C(/C#N)C(=O)COC(=O)c1cc(-c2ccccc2)nc2ccc(Br)cc12`, 10.6%.
`COc1ccc(CCn2c(C3CCCCC3)nc3c(c(=O)c4ccccc4n3C)c2=O)cc1OC`: the “hERG current change (%, negative = inhibition) at 10uM” value is on record as -8.08%.
For the molecule `CC/C(=N\NC(N)=O)c1ccc(OC(F)F)cc1`, the “hERG current change (%, negative = inhibition) at 10uM” value is listed as -12.5%.
Under `CCOC(=O)CC(=O)NC(C)(C)CCCCC(C)(C)NC(=O)CC(=O)OCC` stands 20.5%.
On to `Cc1ccc(OCc2cc(C(=O)NCc3ccc(OC(F)(F)F)cc3)no2)cn1`, for which the “hERG current change (%, negative = inhibition) at 10uM” value is -5.13%.
Take `COc1ccc(/C=C/C(=O)O)cc1COc1cccc(C)c1`: the “hERG current change (%, negative = inhibition) at 10uM” value was determined as 4.41%.
With `Cc1cc2nncn2c2ccccc12`, the “hERG current change (%, negative = inhibition) at 10uM” value was 12.9%.
With `Cc1nn(CC(=O)NCc2cc3ccccc3[nH]2)c(C)c1[N+](=O)[O-]` the figure was 11.8%.
Take `CSc1ccccc1OCc1cc(C(=O)N2CCc3[nH]cnc3C2c2ccccn2)no1` (stereo not shown): the “hERG current change (%, negative = inhibition) at 10uM” value is -4%.
With `Cc1cccc(NC(=O)N2CCC(C(=O)c3ccc(F)cc3)CC2)c1` the figure was -40.6%; with `COc1ccc(C2NC(=O)NC(C)=C2C(=O)OCC2CCCCC2)cc1OC` (stereo not shown), -2.11%; with `C/C(=N/Oc1nc(C)cc(C)n1)c1ccc(Cl)cc1Cl`, -11%.
With `C/C(=N\Nc1ccccn1)c1ccc(N2CCOCC2)cc1` the figure was -1.69%; with `C/C(=N\NC(=O)c1c(Cl)cnn1C)c1cccc(NC(=O)c2ccc(C)cc2)c1`, 1.67%; with `NC(=O)c1ccsc1NC(=O)CCc1ccccc1`, 8.34%.
On to `COCCNC(=S)Nc1ccc(S(=O)(=O)Nc2ncccn2)cc1`, for which the “hERG current change (%, negative = inhibition) at 10uM” value was found to be 10.1%.
Turning to `CCN1C(=S)N[C@@H](c2ccccc2)C(C(=O)OC)=C1C`, the “hERG current change (%, negative = inhibition) at 10uM” value was found to be 14.8%.
In the case of `O=C(CCN1C(=O)COc2ccccc21)NCCN1CCc2ccccc2C1`, the “hERG current change (%, negative = inhibition) at 10uM” value is -35.1%.
For `CC(C(=O)NCc1ccccc1)n1cc([N+](=O)[O-])cn1` (stereo not shown), the “hERG current change (%, negative = inhibition) at 10uM” value is given as -8.6%.
With `COc1ccc(CCn2c(C)c(C(C)=O)c(C(C)=O)c2C)cc1OC` the figure was 6.86%; with `COc1cc(C(=O)NCCC(=O)NCCCN2CCCCC2)cc(OC)c1OC`, -5.84%.
As for `COc1ccc(NC(=O)Nc2cnccn2)c(OC)c1`, the “hERG current change (%, negative = inhibition) at 10uM” value is reported as -26.3%.
As to `CCn1cc(/C=C(\NC(=O)c2ccccc2F)C(=O)NCCN2CCOCC2)c2ccccc21`, the “hERG current change (%, negative = inhibition) at 10uM” value is listed as -2.31%.
Turning to `Cc1nn(CC(=O)Nc2ccc(N3CCOCC3)cc2)c(C)c1Br`, the “hERG current change (%, negative = inhibition) at 10uM” value was 4.46%.
With `CCCS(=O)(=O)N1CCCC(C(=O)NCCN(CC)c2ccccc2)C1` (stereo not shown), the “hERG current change (%, negative = inhibition) at 10uM” value is -11.3%.
For `CC(CC(=O)Nc1ccc(Br)cc1F)S(=O)(=O)c1ccc2c(c1)NC(=O)CO2` (stereo not shown), the “hERG current change (%, negative = inhibition) at 10uM” value was -30.2%.
